Experimental data published in PubChem BioAssay (NCATS).
Several values for one entry are separate records, joined by “and”; a condition that tells them apart may be missing. Identical values can stand only once. This list was built around the results that the source calls inconclusive (neither active nor inactive); the mix of calls is not that of the screen. Where the call is inconclusive, the potency comes from a doubtful curve fit. Activity calls are given as the source filed them. Calls follow the shape of the dose curve; as a rule, active = well fitted curve in the direction sought with a large enough effect; inconclusive = small, poorly fitted or top-dose-only effect, or another doubt; inactive = no such curve, though single readings can be large; an effect the other way counts as inactive or inconclusive.

Key:
[1] = Viability qHTS for spleen associated tyrosine kinase inhibitor (SYKi) naive MV4-11 cells (AID 1963823); conditions: MV4-11 AML viability, CellTiter-Glo luminescence, 72 h; series mostly up to 45 µM; also: nearly all actives have a fitted effect of over 40% in size
Method in brief: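 SYK inhibitor-naive MV4-11 cells, 500 per well, exposed to compounds for 72 hr at 37 C, 5% CO2. Viability read as CellTiter-Glo luminescence after 10 min at room temperature.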

[2] = Viability qHTS for spleen associated tyrosine kinase inhibitor (SYKi) drug resistant MV4-11 cells (AID 1963824); also: nearly all actives have a fitted effect of over 35% in size
Method in brief: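 SYK-inhibitor-resistant MV4-11 AML cells were seeded at 500 per well onto compound and cultured 72 hours (37 °C, 5% CO2). CellTiter-Glo was then added, and after 10 min at room temperature, luminescence gave viability.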

[3] = Quantitative highthroughput screen to assess conditional lethalithy of NOMO1 cells grown in RPMI1640 with dialyzed fetal bovine serum (RPMI+ds) (AID 1963877); also: nearly all actives have a fitted effect of over 30% in size
Method in brief: (§1)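 Each medium arm—HPLM with 10% dialyzed FBS, or RPMI1640 with 5 mM glucose and 10% untreated or dialyzed FBS—was screened against an 11-point, 3-fold compound titration for 48 h at 37 °C, with CellTiter-Glo luminescence as endpoint.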

[4] = Quantitative highthroughput screen to assess conditional lethalithy of NOMO1 cells grown in Human Plasma-Like Medium with dialyzed fetal bovine serum (HPLM+ds) (AID 1963878); conditions: NOMO1 AML cells in HPLM+ds, CellTiter-Glo viability, 48 h; viability: at 45.8 µM (top of the series); also: nearly all actives have a fitted effect of over 35% in size
Method in brief: as §1

[5] = Quantitative highthroughput screen to assess conditional lethalithy of P12 Ichikawa cells grown in Human Plasma-Like Medium with dialyzed fetal bovine serum (HPLM+ds) (AID 1963879); conditions: Potency: viability; also: nearly all actives have a fitted effect of over 35% in size
Method in brief: as §1

[6] = Quantitative highthroughput screen to assess conditional lethalithy of P12 Ichikawa cells grown in RPMI1640 with dialyzed fetal bovine serum (RPMI+ds) (AID 1963880); conditions: Potency: P12-Ichikawa viability; also: nearly all actives have a fitted effect of over 35% in size
Method in brief: as §1

[7] = Quantitative highthroughput screen to assess conditional lethalithy of SEM cells grown in RPMI1640 with dialyzed fetal bovine serum (RPMI+ds) (AID 1963884); conditions: SEM B-ALL cells, RPMI+dialyzed FBS, CellTiter-Glo viability, 48 h; viability: at 45.8 µM (top of the series); also: nearly all actives have a fitted effect of over 35% in size
Method in brief: as §1

[8] = Quantitative highthroughput screen to assess conditional lethalithy of SEM cells grown in Human Plasma-Like Medium with dialyzed fetal bovine serum (HPLM+ds) (AID 1963882); also: nearly all actives have a fitted effect of over 35% in size
Method in brief: as §1

[9] = Quantitative highthroughput screen to assess conditional lethalithy of P12 Ichikawa cells grown in RPMI1640 with untreated serum (RPMI+s) (AID 1963881); conditions: Potency: viability; also: nearly all actives have a fitted effect of over 35% in size
Method in brief: as §1

[10] = Quantitative highthroughput screen to assess conditional lethalithy of SEM cells grown in RPMI1640 with unreated serum (RPMI+s) (AID 1963883); conditions: SEM B-ALL cells, CellTiter-Glo viability, 48 h; viability: at 45.8 µM (top of the series); also: nearly all actives have a fitted effect of over 35% in size
Method in brief: as §1

[11] = Cellular viability qHTS for adrenocortical cancer (ACC) cell line NCI-H295R (AID 1963990); conditions: CellTiter-Glo ATP luminescence, 48 h; series mostly up to 46.1 µM; also: nearly all actives have a fitted effect of over 60% in size
Method in brief: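 IC50 and maximal efficacy derive from four-parameter logistic modelling of titration curves, with reads scaled between DMSO-only wells (0%) and doxorubicin hydrochloride (100% inhibition). Compounds spanned up to 46 uM over 48 h.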

[12] = Cellular viability qHTS for adrenocortical cancer (ACC) cell line SW-13 (AID 1963989); conditions: SW-13 ACC cells viability, CellTiter-Glo, 48 h; activity (max response): stronger effect = lower value; also: nearly all actives have a fitted effect of over 65% in size
Method in brief: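 Luminescent ATP read-out (CellTiter-Glo, 20 min at room temperature) measured metabolically competent SW-13 cells after 48 h compound treatment. Final concentrations spanned up to 46 uM; bortezomib served as positive control.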
Potency is read from the fitted curve at half-maximal effect; tags tell the direction and shape of the fitted curve.

Which results are given for `Nc1ccc(S(N)(=O)=O)cc1`?
Potency [1]: inconclusive: 21.1 µM [cytotoxic, single point]; Potency [2]: inconclusive: 33.5 µM [cytotoxic, single point] and inactive; Potency [3]: inactive; Potency [4]: inactive; Potency [5]: inactive; Potency [6]: inactive; Potency [7]: inactive

For `COc1cc([C@@H]2c3cc4c(cc3[C@H](O)[C@H]3COC(=O)[C@@H]23)OCO4)cc(OC)c1OC`, which Potency [1] is on record?
Its Potency is inconclusive: 0.372 µM [cytotoxic, full curve].

And the Potency [2]?
The Potency was active: 372 nM.

And the Potency [3]?
The Potency was active: 0.526 µM.

And the Potency [4]?
Its Potency is inconclusive: 0.264 µM [cytotoxic, full curve].

What about the Potency [6] of the same compound?
The Potency was active: 0.469 µM.

And the Potency [8]?
Its Potency is active: 0.296 µM.

Which Potency [1] does the source give for `CCCN[C@H]1CCc2nc(N)sc2C1` here?
The Potency was inconclusive: 4.22 µM [cytotoxic, partial curve] and inconclusive: 1.32 µM [cytotoxic, full curve].

What about the Potency [2] of the same compound?
The Potency was inconclusive: 21.1 µM [cytotoxic, single point] and active: 4.17 µM.

And the Potency [3]?
The Potency was “inactive”.

And the Potency [4]?
The Potency was “inactive”.

And the Potency [6]?
The Potency was “inactive”.

And the Potency [9]?
The Potency was “inactive”.

What about the Potency [8] of the same compound?
The Potency was “inactive”.

What about the Potency [7] of the same compound?
Its Potency is “inactive”.

What does the source list for `CNc1nccc(-c2cccnc2Oc2cc(C(=O)Nc3cccc(C(F)(F)F)c3)ccc2C)n1`?
Potency [1]: active: 517 nM and active: 1.18 µM; Potency [2]: active: 1.3 µM and active: 2.09 µM; Potency [3]: inconclusive: 11.8 µM [cytotoxic, single point]; Potency [4]: inconclusive: 6.62 µM [cytotoxic, single point]; Potency [5]: inactive; Potency [9]: inconclusive: 9.35 µM [cytotoxic, single point]; Potency [10]: inconclusive: 7.43 µM [cytotoxic, partial curve, poor fit]; Potency [11]: inconclusive: 3.55 µM [cytotoxic, single point]

With `CN[C@@H](C)C(=O)N[C@H]1CCCC[C@H]2CC[C@@H](C(=O)N[C@@H](c3ccccc3)c3cn(CCCCc4ccc(CCCCn5cc([C@@H](NC(=O)[C@@H]6CC[C@@H]7CCCC[C@H](NC(=O)[C@H](C)NC)C(=O)N76)c6ccccc6)nn5)cc4)nn3)N2C1=O` as the compound, how does the Potency [1] read?
The Potency was inconclusive: 3.32 µM [cytotoxic, full curve].

And the Potency [2]?
The Potency was inconclusive: 1.7 nM [cytotoxic, full curve].

What about the Potency [3] of the same compound?
Its Potency is inconclusive: 0.148 µM [cytotoxic, full curve].

What about the Potency [4] of the same compound?
Its Potency is inconclusive: 0.0042 µM [cytotoxic, full curve].

What about the Potency [5] of the same compound?
The Potency was “inactive”.

And the Potency [9]?
The Potency was “inactive”.

What about the Potency [8] of the same compound?
The Potency was “inactive”.

What about the Potency [7] of the same compound?
The Potency was inconclusive: 33.2 µM [cytotoxic, single point].

Which Potency [1] does the source give for `C=C1c2cccc(O)c2C(O)=C2C(=O)[C@@]3(O)C(O)=C(C(N)=O)C(=O)[C@@H](N(C)C)[C@@H]3[C@@H](O)[C@H]12` here?
Its Potency is inconclusive: 18.6 µM [cytotoxic, partial curve].

And the Potency [2]?
Its Potency is inconclusive: 16600 nM [cytotoxic, partial curve].

And the Potency [3]?
Its Potency is “inactive”.

What about the Potency [4] of the same compound?
Its Potency is “inactive”.

And the Potency [6]?
The Potency was “inactive”.

And the Potency [8]?
Its Potency is “inactive”.

For `COc1cc2nccc(Oc3ccc(NC(=O)C4(C(=O)Nc5ccc(F)cc5)CC4)cc3)c2cc1OC`, which Potency [1] is on record?
The Potency was inconclusive: 9.2 nM [cytotoxic, full curve] and inconclusive: 10.5 nM [cytotoxic, full curve].

What about the Potency [2] of the same compound?
The Potency was inconclusive: 10.3 nM [cytotoxic, full curve].

And the Potency [3]?
Its Potency is inconclusive: 16.6 µM [cytotoxic, partial curve].

What about the Potency [4] of the same compound?
Its Potency is inconclusive: 18.7 µM [cytotoxic, partial curve].

And the Potency [5]?
The Potency was inconclusive: 16.6 µM [cytotoxic, partial curve].

And the Potency [6]?
Its Potency is inconclusive: 13.2 µM [cytotoxic, partial curve].

What about the Potency [8] of the same compound?
The Potency was inconclusive: 0.118 µM [cytotoxic, full curve].

What about the Potency [10] of the same compound?
The Potency was inconclusive: 7.43 µM [cytotoxic, partial curve].

What about the Potency [7] of the same compound?
Its Potency is inconclusive: 0.0935 µM [cytotoxic, full curve, poor fit].

And the Potency [12]?
The Potency was active: 12.6 µM.

For `Cc1ccc(-n2[nH]c(C)c(N=Nc3cccc(-c4cccc(C(=O)O)c4)c3O)c2=O)cc1C`, which Potency [1] is on record?
Its Potency is inconclusive: 15 µM [cytotoxic, partial curve] and inconclusive: 3.72 µM [cytotoxic, full curve].

What about the Potency [2] of the same compound?
The Potency was inconclusive: 4170 nM [cytotoxic, full curve].

What about the Potency [3] of the same compound?
The Potency was inconclusive: 14.8 µM [cytotoxic, partial curve].

What about the Potency [4] of the same compound?
Its Potency is inconclusive: 11.8 µM [cytotoxic, partial curve, poor fit].

What about the Potency [6] of the same compound?
The Potency was inconclusive: 16.6 µM [cytotoxic, partial curve].

And the Potency [9]?
The Potency was inconclusive: 11.8 µM [cytotoxic, partial curve].

What about the Potency [8] of the same compound?
Its Potency is inconclusive: 18.7 µM [cytotoxic, single point].

And the Potency [10]?
The Potency was inconclusive: 16.6 µM [cytotoxic, partial curve].

And the Potency [7]?
The Potency was inconclusive: 18.7 µM [cytotoxic, partial curve].

What about the Potency [12] of the same compound?
The Potency was inconclusive: 29.1 µM [cytotoxic, single point].
